Test results reported in PubChem BioAssay AID485294 (National Center for Advancing Translational Sciences (NCATS), 2010).
The whole screen tested about 370,000 compounds, of which about 150 (0.041%) were called active. Inconclusive means that the source gave no clear call. Such entries were picked first, then a sample of the others. The call rests on the fitted dose curve; in most records, active means well fitted inhibition curve with a large enough effect; inconclusive means small, poorly fitted or top-dose-only effect; inactive means flat fitted curve, though single readings scatter. No potency is given beside an inconclusive call; the fits are too rough.

target: Beta-lactamase (Escherichia coli (strain K12)) (UniProt P00811); experiment: qHTS Inhibitors of AmpC Beta-Lactamase (assay with detergent); details: AmpC hydrolysis of nitrocefin, absorbance 480 nm, 0.01% Triton; activity change, negative = inhibition: at 114 µM (top of the series); further: nearly all actives have a fitted effect of over 25% in size;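 on activity change, negative = inhibition: 0% = no-compound wells and -100% = no-enzyme wells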
Sequence of UniProt P00811 (P00811 whole entry, looked up): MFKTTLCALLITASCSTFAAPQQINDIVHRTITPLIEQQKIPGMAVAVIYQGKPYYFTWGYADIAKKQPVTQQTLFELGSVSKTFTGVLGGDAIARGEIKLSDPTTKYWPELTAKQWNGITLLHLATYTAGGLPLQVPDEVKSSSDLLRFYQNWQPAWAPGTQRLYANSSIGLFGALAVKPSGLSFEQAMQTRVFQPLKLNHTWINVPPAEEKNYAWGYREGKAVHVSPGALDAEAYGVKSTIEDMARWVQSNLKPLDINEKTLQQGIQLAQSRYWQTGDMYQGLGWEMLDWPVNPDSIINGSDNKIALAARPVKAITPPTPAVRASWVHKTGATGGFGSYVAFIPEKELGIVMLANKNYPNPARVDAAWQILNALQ
In short: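 AmpC (5.3 nM in the dispensed reagent) in 20 mM phosphate pH 7.0 with 0.01% (detergent screen) or 0.0001% Triton X-100 was preincubated with compounds for 15 min at room temperature. Nitrocefin was then added from an 800 uM solution, and hydrolysis was followed at 480 nm.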
Potency means the concentration at half of the fitted maximal effect; tags describe the fitted curve by direction and shape.

Compound	activity change, negative = inhibition	Potency
CSc1ccc(CN2CCC(CO)(Cc3ccc(Cl)cc3)CC2)cc1	inactive: -10.2%	–
Cc1cccc(-n2ncc3c(NCCN4CCOCC4)ncnc32)c1	inactive: 0.53%	–
COc1ccc(C2C(C#N)=C(N)OC3=C2C(=O)CCC3)c(OC)c1OC (centres undefined)	–	inconclusive [inhibitor, full curve, poor fit]
Cc1ccc(NC(=O)Nc2nnc(N(C)Cc3ccccc3)s2)cc1	inactive: 3.45%	–
CCOC(=O)c1ccc(NC(=O)c2cc3cc(C)ccc3n2C)cc1	inactive: 13.3%	–
CC(=O)c1cc2c(cc1NC(=O)Cn1nc(C)c(C)c(C#N)c1=O)OCO2	–	inconclusive [inhibitor, full curve, poor fit]
O=C(OC1CCOC1=O)C1CCN(S(=O)(=O)c2c(Cl)cccc2Cl)CC1 (centres undefined)	–	inconclusive [inhibitor, full curve, poor fit]
CN1CCN(S(=O)(=O)c2cccc(C(=O)NC3CCCc4ccccc43)c2)CC1 (centres undefined)	–	inconclusive [inhibitor, full curve, poor fit]
CCOc1cc(-c2nc(-c3ccc(-c4ccc(C)cc4)nc3OC)no2)cc(OCC)c1OCC	–	inconclusive [inhibitor, single point]
Cc1ccc(C(=O)CCc2ccc(N)cc2)cc1	inactive: -5.74%	–
CN(C)Cc1cc(CN(C)C)c(O)c(CCc2ccccc2)n1	–	inconclusive [inhibitor, full curve, poor fit]
Clc1ccc(C2CC(c3cccs3)n3ncnc3N2)cc1Cl (centres undefined)	–	inconclusive [inhibitor, full curve, poor fit]
Cc1ccc(-c2csc3ncn(CC(=O)OC(C)C)c(=O)c23)cc1	–	inconclusive [inhibitor, full curve, poor fit]
CN1OC(c2ccccc2)=C(CO)C1c1ccccc1 (centres undefined)	–	inconclusive [inhibitor, partial curve]
COC(=O)CSc1nc(C)cc(C(F)(F)F)c1C#N	inactive: -11.4%	–
COc1cccc(NS(=O)(=O)c2ccc3c(c2)N(C(C)=O)CCS3)c1	inactive: 1.07%	–
COc1cccc(N/C(=N/C(=S)Nc2ccc(C)cc2C)Nc2nc(C)cc(C)n2)c1	inactive: -6.61%	–
CC1(C)CC2(CC(c3ccccc3)c3ccc(O)cc3O2)NC(=S)N1 (centres undefined)	inactive: -6.99%	–
COc1cc(C(=O)N/N=C(\C)Cc2ccccc2)cc(OC)c1OC	–	inconclusive [inhibitor, full curve]
COc1ccc(-n2sc3ccc(F)cc3c2=O)cc1	inactive: -13.6%	–
CCOc1ccc(Cc2nnc(SCC(=O)Nc3ccc(OC)cc3)n(N)c2=O)cc1	–	inconclusive [inhibitor, single point]
COc1ccccc1NC(=O)c1c(NCc2sccc2C)sc2c1CCCCC2	inactive: -2.4%	–
O=C(c1ccccc1)c1ccc(OCC(O)CN2CCN(S(=O)(=O)N3CCCCC3)CC2)cc1 (centres undefined)	–	inconclusive [inhibitor, full curve]

Compound	activity change, negative = inhibition	Potency
CN(NC(=O)c1c(Cl)cccc1Cl)c1cccc(Cl)n1	–	inconclusive [inhibitor, full curve]
Cc1cccc(Nc2ncnc3nc[nH]c23)c1C	–	inconclusive [inhibitor, full curve, poor fit]
CCN1C(=O)S/C(=C/c2ccc(Sc3nc4ccccc4[nH]3)o2)C1=O	–	inconclusive [inhibitor, single point]
Cc1cc(=O)[nH]c2nnc(SCC(=O)N3CC(C)OC(C)C3)n12 (centres undefined)	–	inconclusive [inhibitor, full curve, poor fit]
Cc1nccc2oc(=O)c(NC(=O)c3ccc(Cl)cc3)cc12	–	inconclusive [inhibitor, partial curve, poor fit]
O=C1C2CCCCN2C(=O)N1CCCN1CCN(c2ccc(F)cc2)CC1 (centres undefined)	inactive: -17.7%	–
CCOC(=O)c1sc(=NC(=O)c2ccccc2)n(C)c1C	inactive: 4.78%	–
CCN(CC)CCn1c2c(c(SCC(=O)Nc3ccc(C)c(F)c3)nc1=O)CCCC2	–	inconclusive [inhibitor, full curve]
Cc1cc(C)c2oc(C(=O)N(Cc3ccc(F)cc3)C3CCS(=O)(=O)C3)cc(=O)c2c1 (centres undefined)	–	inactive
COc1ccccc1CN(CC(=O)NCc1ccc(F)cc1)C(=O)c1csnn1	–	inconclusive [inhibitor, full curve, poor fit]
N#C/C(C(=O)Oc1ccccc1)=C1\C=CC=CN1	inactive: -9.92%	–
COc1ccc2c(=O)c(-c3cnn(-c4ccccc4)c3)c(C)oc2c1	–	inconclusive [inhibitor, full curve, poor fit]
CCOc1ccccc1N1CCN(C(=O)CCCc2nc3ccccc3s2)CC1	–	inconclusive [inhibitor, full curve, poor fit]
CN(C)CCCN(C(=O)CCSc1ccccc1)c1nc2cc3c(cc2s1)OCO3	–	inconclusive [inhibitor, full curve, poor fit]
CC(=O)Nc1nc2c(ncn2COCCOC(C)=O)c(=O)[nH]1	inactive: -5.18%	–
COc1cccc(Nc2cc(N3CCOCC3)c3nonc3c2[N+](=O)[O-])c1	–	inconclusive [inhibitor, single point]
Cc1ccc(C(=O)NCCCc2ccccc2)s1	–	inconclusive [inhibitor, single point]
CCC1=NC(c2ccccc2OC)N(O)C1(C)C (centres undefined)	–	inconclusive [inhibitor, full curve, poor fit]
C[C@@H]1NC(=O)[C@H](CCC(N)=O)NC(=O)c2cc([N+](=O)[O-])cc(I)c2NCCC[C@@H](C(N)=O)NC1=O	inactive: -3.58%	–
CCOc1ccccc1NC(=O)CCc1nnc2ccc(N3CCC(C)CC3)nn12	–	inconclusive [inhibitor, full curve, poor fit]
O=C1N=C(N2CCOCC2)S/C1=C/c1cccs1	–	inconclusive [inhibitor, full curve, poor fit]
O=C1C(Cl)=C(N2CCCCCC2)C(=O)N1c1ccc(Cl)cc1	inactive: -5.54%	–
CCc1nnc(NC(=O)Cn2nc(-c3ccc(OC)c(OC)c3)ccc2=O)s1	–	inconclusive [inhibitor, full curve, poor fit]

Compound	activity change, negative = inhibition	Potency
O=C(CCc1ccccc1)NC(NC(=S)Nc1ccc(Cl)cc1)C(Cl)(Cl)Cl (centres undefined)	–	inconclusive [inhibitor, single point]
N/C(Cc1ccc([N+](=O)[O-])cc1)=N\OC(=O)CC1CCCCC1	–	inconclusive [inhibitor, full curve, poor fit]
Cn1c(O)c(C=NCCN2CCN(C(=O)c3ccccc3)CC2)c(=O)n(C)c1=O	–	inconclusive [inhibitor, full curve, poor fit]
Cc1ccccc1N1CC(C(=O)Nc2ccncc2)CC1=O (centres undefined)	–	inconclusive [inhibitor, full curve]
Cc1oc2c(CN3CCCCC3)c(O)ccc2c(=O)c1-c1ccc(Cl)cc1	–	inconclusive [inhibitor, full curve, poor fit]
COc1cccc(/C=C/C(=O)Nc2cccc(C(C)=O)c2)c1OC	–	inconclusive [inhibitor, partial curve, poor fit]
O=S(=O)(NCc1ccccn1)c1ccccn1	–	inconclusive [inhibitor, full curve, poor fit]
CCn1cc(S(=O)(=O)CC(=O)Nc2ccc(OC)cc2)c2ccccc21	–	inconclusive [inhibitor, full curve, poor fit]
Nc1cc(C(F)(F)F)ccc1NCCc1ccccn1	–	inconclusive [inhibitor, partial curve]
CCOCCCn1c(=S)[nH]c2cc(C(=O)N3CCN(C)CC3)ccc2c1=O	–	inconclusive [inhibitor, single point]
Cc1oc(-c2ccc(Cl)cc2)nc1CS(=O)CC(=O)NC(C)c1ccccc1 (centres undefined)	inactive: -2.62%	–
c1ccc(Oc2ccc(-c3ccnc4nc(N5CCN(c6ccccc6)CC5)nn34)cc2)cc1	inactive: -2.83%	–
CCCNC(=O)c1ccc2c(=O)c(O)c(-c3ccc(F)cc3)[nH]c2c1	inactive: 2.92%	–
Cc1ccc(CNC(=O)c2ccccc2NC(=O)CSc2nnnn2C)cc1	–	inconclusive [inhibitor, full curve, poor fit]
CCC(=O)N1CCN(c2ccc(NC(=O)c3ccc4ccccc4c3)cc2)CC1	–	inconclusive [inhibitor, full curve, poor fit]
Fc1ccccc1NC(=S)Nc1cccnc1	inactive: -4.29%	–
CSc1ncccc1C(=O)N1CCN(S(=O)(=O)c2ccccc2)CC1	–	inconclusive [inhibitor, full curve, poor fit]
C=CCn1c(SCC(=O)NC2CCCC2)nc2c([nH]c3ccccc32)c1=O	–	inconclusive [inhibitor, single point]
Cc1ccc(CNC(=O)c2ccc(CS(=O)Cc3ccccc3Cl)o2)cc1 (centres undefined)	inactive: 1.75%	–
O=C(CSc1ccccn1)Nc1ccc(Cl)c([N+](=O)[O-])c1	–	inconclusive [inhibitor, full curve, poor fit]
Cc1ccc2c(c1)nnn2C1CCN(S(=O)(=O)c2ccc(C(=O)N(C)C3CCCCC3)cc2)CC1	–	inconclusive [inhibitor, partial curve, poor fit]
Cc1ccc(-c2nnc(CSc3nc(C)nc4sc(C)c(C)c34)o2)cc1	–	inconclusive [inhibitor, full curve]
COc1cccc(C(=O)NC2CCCc3c2cnn3-c2ccc(C)c(C)c2)c1OC (centres undefined)	–	inconclusive [inhibitor, full curve, poor fit]
